Test results from the supplement of paper PMC12217912.
The other results are listed elsewhere or left out. The full chains were built here from the parent and the listed change. Values near 0.05 are background.

B1: TEV protease; numbered along this chain (parent)
chain: MGESLFKGPRDYNPISSSICHLTNESDGHTTSLYGIGFGPFIITNKHLFRRNNGTLVVQSLHGVFKVKDTTTLQQHLVDGRDMIIIRMPKDFPPFPQKLKFREPQREERICLVTTNFQTKSMSSMVSDTSCTFPSGDGIFWKHWIQTKDGQCGSPLVSTRDGFIVGIHSASNFTNTNNYFTSVPKNFMELLTNQEAQQWVSGWRLNADSVLWGGHKVFMVKPEEPFQPVKEATQL

Variants of: B1
Assay: raw area under fraction-flipped curve 0-4 h after induction (AUC4h, not background-subtracted), DNA-recorder readout of cleavage of the substrate (dimensionless); higher = more cleavage of the substrate by the protease variant
Conditions: temperature: 34 °C; time window: 0-4 h after rhamnose induction
Protocol: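 In vivo DNA recorder in E. coli TOP10(DE3) ΔrhaA at 34 °C. Each TEVp single-site mutant (parent TEVp 0) is paired with a single-site variant of the 7-mer TEVs (canonical ENLYFQ|S). The substrate sits between flexible linkers in a Bxb1-sfGFP-TEVs-SsrA fusion, so cleavage stabilises Bxb1 and speeds flipping of a recombination array, read by NGS. The value is the raw area under the fraction-flipped curve over 0-4 h after rhamnose induction (AUC4h), with ≥20 reads per time point. It is not background-subtracted; inactive controls average about 0.047.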
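Also: Bxb1 expression induced with 0.2% (w/v) L-rhamnose at OD600 near 0.5, cultures sampled hourly, flipped fraction per protease–substrate barcode pair counted by paired-end Illumina sequencing.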

Variant	area with substrate ENLCFQS	area with substrate ENLDFQS	area with substrate ENLEFQS	area with substrate ENLFFQS	area with substrate ENLHFQS	area with substrate ENLKFQS	area with substrate ENLLFQS	area with substrate ENLNFQS	area with substrate ENLPFQS	area with substrate ENLQFQS	area with substrate ENLRFQS	area with substrate ENLSFQS	area with substrate ENLWFQS	area with substrate ENLGFQS	area with substrate ENLMFQS	area with substrate ENLTFQS	area with substrate ENLVFQS	area with substrate ENLIFQS
V210Y	0.065	0.0872	0.0487	0.074	0.0542	0.0601	0.0707	0.0623	0.0554	0.0519	0.0539	0.0519	0.0566					
M219A	0.068	0.033		0.0752	0.0684	0.0615	0.0677	0.0729	0.063		0.0591	0.0677	0.0476	0.0646	0.0631	0.0666	0.0786	
M219F	0.109	0.066	0.0695	0.167				0.0791	0.0604	0.0797		0.0673	0.0875					0.0862
L48Y		0.0586	0.0468	0.064		0.0588				0.0682				0.0611	0.0554			0.0637
D161Q	0.0569	0.0596	0.0509	0.0537	0.0579	0.0652	0.0667	0.0552			0.0504		0.0421					0.0641
G80W		0.0593	0.0657	0.103	0.0649	0.0712	0.0636	0.0683	0.0537		0.0689	0.0636						0.0839
F133G	0.0798	0.0725		0.0736	0.0686	0.0564		0.074			0.0721	0.0692	0.058	0.0825			0.0917	0.0811
T119E		0.0774				0.0876			0.0336			0.053				0.0553		
T119F		0.068		0.106						0.0866					0.0641		0.0791	
P184K	0.0643	0.0588	0.0786	0.0774	0.0838		0.0576	0.0446		0.0804		0.0562	0.0603		0.0449		0.0715	
L73V		0.0663	0.0535	0.0722	0.0726	0.0681		0.0703	0.0582	0.0542	0.061		0.0298	0.0579			0.0708	
V58P		0.0285						0.0262		0.0308								
L56K		0.0606	0.0464	0.0508		0.0534	0.0424	0.0544	0.0414		0.0241	0.0441	0.0486		0.0316			
H29F		0.0577	0.0741	0.0702	0.0976		0.081	0.0578	0.0595		0.0795	0.0558	0.0607	0.0698	0.0427			
M83F		0.0589		0.0551		0.0777		0.0512		0.0634		0.0621	0.0552	0.0848			0.0696	
I145R	0.0517	0.0663	0.07	0.0494	0.0588			0.0741			0.0782	0.0325			0.061			
T55Q		0.0523		0.0673	0.0691	0.0769			0.0696			0.0619	0.0681	0.061	0.0794		0.0956	0.0744
V200C	0.0539	0.0756	0.0682	0.0657	0.0809	0.121		0.0472	0.0603		0.0688	0.0615		0.0658	0.0753		0.0679	0.0684

Variant	area with substrate ENLCFQS	area with substrate ENLDFQS	area with substrate ENLEFQS	area with substrate ENLFFQS	area with substrate ENLHFQS	area with substrate ENLKFQS	area with substrate ENLLFQS	area with substrate ENLNFQS	area with substrate ENLPFQS	area with substrate ENLQFQS	area with substrate ENLRFQS	area with substrate ENLSFQS	area with substrate ENLWFQS	area with substrate ENLGFQS	area with substrate ENLMFQS	area with substrate ENLTFQS	area with substrate ENLVFQS	area with substrate ENLIFQS
V200G	0.0567			0.066	0.0611	0.057	0.0489		0.0607	0.0611		0.0476	0.0528					
A232Q	0.0615	0.0541		0.0901		0.124		0.0752	0.0806	0.0787		0.0618	0.0825	0.0639	0.0927		0.0974	0.0833
V165N	0.0486	0.0563		0.072		0.0335	0.0566	0.0571	0.0344		0.0502				0.0493	0.0631		
G138H	0.0576		0.065	0.083		0.0662	0.0623	0.0257				0.0489					0.0528	
G138R	0.067		0.064	0.0716	0.0599	0.0805		0.0741	0.0591			0.0721					0.0679	0.065
P155Q	0.0586	0.0587	0.0552	0.0693	0.059	0.0583	0.0508	0.0542	0.0485	0.0604	0.0549	0.0428	0.0557	0.0615	0.0526	0.0519	0.0659	0.0495
T72E		0.0703	0.0605	0.0809				0.0708							0.0693			
T72Q		0.0649		0.0922	0.0645	0.0843		0.0741			0.0613			0.0628			0.0831	
F187P	0.0715	0.041	0.0452	0.0462	0.057	0.0495		0.0556			0.0513	0.0413				0.0634		
R160M	0.0831			0.0776	0.0464			0.0721				0.059						
S121T	0.0531	0.0405		0.0918	0.0755								0.0811				0.0954	
G8N		0.0559		0.0838	0.0698	0.0646		0.0634	0.0413			0.053	0.0752				0.104	0.0924
G8C		0.0544		0.0853				0.0576			0.0624							
Q75N		0.0636		0.0635		0.053	0.0565					0.0649		0.066				0.0642
P104R		0.0453		0.0652		0.0497	0.0425	0.0517	0.0567		0.0503	0.0629			0.0292			0.0545
H62K		0.0463		0.0734	0.0515	0.0801	0.0722	0.086		0.138				0.0462			0.0805	0.123
D69G		0.0639	0.0626	0.0709		0.0579	0.0692		0.0645	0.053		0.0586	0.0614		0.0746			
